The other results are listed elsewhere or left out. At the low end of the ranking, values are background and their order means little. The protein was read in a cell extract, so binding may be indirect.

The experiment deals with T1, HNF4alpha8 (COS-7 nuclear extract) (UniProt P41235-5).
T1 sequence: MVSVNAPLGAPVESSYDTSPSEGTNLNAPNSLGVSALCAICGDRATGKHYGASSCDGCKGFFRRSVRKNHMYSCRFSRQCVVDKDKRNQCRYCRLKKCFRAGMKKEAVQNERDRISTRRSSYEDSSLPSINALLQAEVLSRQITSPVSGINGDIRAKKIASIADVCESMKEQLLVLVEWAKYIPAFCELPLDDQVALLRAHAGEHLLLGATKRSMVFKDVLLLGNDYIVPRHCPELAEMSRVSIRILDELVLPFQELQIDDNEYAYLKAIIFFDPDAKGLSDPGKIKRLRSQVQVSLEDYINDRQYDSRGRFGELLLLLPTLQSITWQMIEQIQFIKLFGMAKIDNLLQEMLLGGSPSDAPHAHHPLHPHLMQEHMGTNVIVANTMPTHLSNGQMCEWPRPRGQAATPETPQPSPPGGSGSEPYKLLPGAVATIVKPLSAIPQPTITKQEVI
Kind of experiment: protein-binding microarray. Conditions: COS-7 nuclear extract on double-stranded Agilent 4x180k PBM; binding buffer, salt, pH and temperature not given; high values mean tight binding; double strand, one strand shown; sequences stand for … in …GCCTAGGGAGATTAGAGTATCGGTCGA
In the case of ACCTTTTCCCTCCCTCCCAGTACAAAGTTC, the binding signal (log2 normalized intensity) came out at 5.74.

Take GGCTTCTGGACTATGCCTTGAACTTTAAGG: the binding signal (log2 normalized intensity) was 2.85.

Turning to GTCTGTTGACCTTTGGCCAAGGGCAGTGTT, the binding signal (log2 normalized intensity) came to 7.73.

In the case of TGACCGATAACCCTCCTGAACATAATTGCA, the binding signal (log2 normalized intensity) is -1.27.

As for GTTTTCACTGCTGGGTTTCTTCCCTAATGG, the binding signal (log2 normalized intensity) was 0.834.

GTTAAAGCACAGTGTCTTTGTTTGGAAAAG: the binding signal (log2 normalized intensity) worked out at 0.547.

As for CATCATTCCGTGACTGAGCTCGCGCCGGGC, the binding signal (log2 normalized intensity) was -1.38.

Take TTTGGTGTTACCTTTGGACTGTCCTTTGCT: the binding signal (log2 normalized intensity) was determined as 5.06.

As to GTCGGGAGGTAGGGGTGGCGGGTTGGAGGT, the binding signal (log2 normalized intensity) is -0.103.

Regarding GCTTTGAGACACCTGGCCAAGTACAGCCTG, the binding signal (log2 normalized intensity) is -1.39.

Regarding GCACAGCCAGAACTGAGCCCTGGTTTATCT, the binding signal (log2 normalized intensity) is -1.19.

Turning to CAGGTTCAAATCTAAACCTAGCAGCCTGCC, the binding signal (log2 normalized intensity) is -1.28.

As to CAGCAGAGGGAGCCGCTGTGTGGGAAGAGG, the binding signal (log2 normalized intensity) is -1.17.

With TGGTAAAGTCAATAATCTAGAAACCAGTGA, the binding signal (log2 normalized intensity) was -1.06.

With GAGCTCAGTCACAGCAGTGGACTTTGACCT, the binding signal (log2 normalized intensity) was 11.7.

On to GCAACAGAGGAGCATGGACTTCTGAGCTTG, for which the binding signal (log2 normalized intensity) amounted to 1.07.

Take ATACAGAATCAATGCCTGATTCCAAAGTCC: the binding signal (log2 normalized intensity) came out at 6.36.

Turning to GTTTCCTTTGAACTCTGCATCCAGGCATCC, the binding signal (log2 normalized intensity) came to 1.34.

For the sequence GCTAGACTTGGACCAGCTTTTGGAAGGACT, the binding signal (log2 normalized intensity) was found to be 0.0118.

Consider CAAGAAAAGGTTCCTATGTAAACACAAGAT, for which the binding signal (log2 normalized intensity) was -1.35.

On to GTTTTCTGACGCAACAGAAAACTCAACTTC, for which the binding signal (log2 normalized intensity) is -0.978.

As to AGAGTCCAAGATACCACTGATAAGGTTCCA, the binding signal (log2 normalized intensity) stood at 0.211.

On to CTTCGCTCTCTTCTGGTGATCAAACAAAAG, for which the binding signal (log2 normalized intensity) is -0.67.

On to AAACAGAGGACAGTTGTGTTTGTTGACCAC, for which the binding signal (log2 normalized intensity) turned out to be 1.77.

With GGGTGAAAGGGACTCATCTCCAAACGAGAC, the binding signal (log2 normalized intensity) is -1.21.

As for CCTTCTGTTAGAATGTATTGAGAAGAAACC, the binding signal (log2 normalized intensity) amounted to 0.897.

With GCAGCTCTTTACAAAGCCCATGCTGGACCC, the binding signal (log2 normalized intensity) is 4.69.

As for CAAAATATCTCACTCCCACACTGGTAACCT, the binding signal (log2 normalized intensity) is 0.32.

For CTTTGCTTTGAGAAAGCAAAGTCCCTGGGG, the binding signal (log2 normalized intensity) was 1.52.

As to TCTCATGGCTCATTTTGGGCATCTGCAGGG, the binding signal (log2 normalized intensity) was 1.23.

Regarding AGTGTAAGATAAAAATCAGAGATCAAGATA, the binding signal (log2 normalized intensity) was -1.42.

Consider CTTTGACCCTGTTTTGTAAACTCCCTTTGA, for which the binding signal (log2 normalized intensity) is 2.04.

Consider ACACAGGACTTGATCCAGGGCAAAGGTCAT, for which the binding signal (log2 normalized intensity) was determined as 7.91.

On to AGATAGCATTCCAAGAGAGCAAAGTGCTTT, for which the binding signal (log2 normalized intensity) came out at 1.21.

For the sequence GCCAGAACTGAGCCCTGGTTTATCTGTTGT, the binding signal (log2 normalized intensity) is 0.861.

For TTACAATGGAAAGATTAGGTCAAAGGGCGT, the binding signal (log2 normalized intensity) amounted to 6.14.

In the case of CCTGGGCATGTCTGCTCCCTGAGTTTCTGC, the binding signal (log2 normalized intensity) was determined as 1.07.

On to ACCAAAGCAGCTAGCAAATACAAGGACACT, for which the binding signal (log2 normalized intensity) was -1.28.

With GGCAGAGCATAGAAGTAAGAAATCAGGAGC, the binding signal (log2 normalized intensity) is -1.35.

Take GGAGGTAGGGCAAGAGGACAAGGTTCAAAA: the binding signal (log2 normalized intensity) worked out at 3.23.

On to TGCCCTGAGCCGCCAGGCGGGTTCTGCCAT, for which the binding signal (log2 normalized intensity) is -1.38.

In the case of GGTTGCAAAAACAATCAGGGGTTAGGGTGA, the binding signal (log2 normalized intensity) is -1.08.

Take GGTCCTAAGACTAACCTTTGACCATCCACG: the binding signal (log2 normalized intensity) turned out to be 6.44.

On to AGATCTGGATATGCCTGGGGTTCCAGTTAC, for which the binding signal (log2 normalized intensity) stood at 0.546.

Consider AAAATAGGGATTAAGCAGATGTTTCTGCAA, for which the binding signal (log2 normalized intensity) was -0.869.

As to GAAGCAATCAAGCAATCATATATGCATTTG, the binding signal (log2 normalized intensity) was -0.715.

Take TTTAAGGATCCAGACGGATTCCACGGGGGT: the binding signal (log2 normalized intensity) is -0.402.

For AAACCTCCCCCAAACCAAAGAGAAATGGTG, the binding signal (log2 normalized intensity) was 3.41.

For GAAAGTCATGCTGAAGTACAGATTCCTGTA, the binding signal (log2 normalized intensity) turned out to be 0.545.

Take CAAAGGTCATGGCAACAGTTTTCTGGGATG: the binding signal (log2 normalized intensity) stood at 3.46.

As to GTCTTCATGGGCAAATAAAGCTAACCAGCT, the binding signal (log2 normalized intensity) is -1.16.

GAGCAGGGATTGGGGATGCTCAAAGTACAC: the binding signal (log2 normalized intensity) was 2.81.

For TATCAGAAGCTTACATATCACTTCCATCAG, the binding signal (log2 normalized intensity) was -1.33.

As to GCCACCCTGAAGGCTGAGCCTAGGAGTTCA, the binding signal (log2 normalized intensity) is -0.782.

In the case of AAAACTGGCCCTGATTTCAAAGTTCAGTTT, the binding signal (log2 normalized intensity) amounted to 3.53.

Take AGCCGTTTCTGTCCAGAGTTTAAATGACCT: the binding signal (log2 normalized intensity) came to 3.77.

With TAAGGTCCTGTTTGTCAGCATCTTCACCGT, the binding signal (log2 normalized intensity) was found to be 0.591.

As to CATGTGCAAAAGCACCCAAGGCTCTGCACA, the binding signal (log2 normalized intensity) is -1.29.

Consider TATCAGTAGTTGCAAATATTGCAGTGTAGA, for which the binding signal (log2 normalized intensity) is 0.767.

In the case of CATAGGAACAAAGGTTGGTGTGAACCAGGG, the binding signal (log2 normalized intensity) was determined as 1.73.

ATATTTTCTTTGTGCTATTTTTGGCTTGGT: the binding signal (log2 normalized intensity) was 1.96.

Take GCCTTCGCACCTGCCTGTCTCACCTCGCTA: the binding signal (log2 normalized intensity) is -1.3.

On to ATCTGACCTTTGGTTAACTTCTTAACTTGG, for which the binding signal (log2 normalized intensity) came out at 3.5.

On to CATAAAACCTAGACAGAAGCTTTCTGAGAA, for which the binding signal (log2 normalized intensity) is -1.34.

On to AGTGAGACGTTCCAAACCGGTCTTTCCACT, for which the binding signal (log2 normalized intensity) is -1.16.

Regarding ACCCTTGAACCTTCTTCTTGCAGTCCACAT, the binding signal (log2 normalized intensity) worked out at 2.12.

Turning to CAAAGGATACAGATAAATAAATCAAGATCA, the binding signal (log2 normalized intensity) is -1.27.

Regarding GGTGGTATGTGTGTGCTTTAACAAGGTGTG, the binding signal (log2 normalized intensity) amounted to 1.77.

Take TTCCTGCAGGCCCATCTGGGACTTCAAAGC: the binding signal (log2 normalized intensity) is -1.1.

Turning to GTCCAAACCCCTATGTTTAATGTATAAACC, the binding signal (log2 normalized intensity) stood at 2.01.

For AGCCCAATAAAATCTGGCAGCTTAAAAATG, the binding signal (log2 normalized intensity) was -1.18.

For the sequence ATCTCCCAGGTCTCCTCCACAGAGCACAGG, the binding signal (log2 normalized intensity) was -1.34.

For TTACTGGGGCCCATTGTATGAGGGTGAAGT, the binding signal (log2 normalized intensity) was 0.972.

(Values after article PMC10726135.)
